# About 230 (0.21%) of roughly 110,000 compounds showed an effect of 50% or more. The list shows a part of the results.
# Target: DPAP1 (Plasmodium falciparum, UniProt Q8IIJ9)
# Assay: primary screen, percent inhibition; read by cleavage of a fluorogenic dipeptide substrate; higher = more effect of the substance
# Set-up: species or system P. falciparum D10 trophozoite lysates; single well
# 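Further: 30 min substrate incubation versus DMSO and 10 µM JCP410 controls.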
# DPAP1, sequence (Q8IIJ9 whole entry, looked up): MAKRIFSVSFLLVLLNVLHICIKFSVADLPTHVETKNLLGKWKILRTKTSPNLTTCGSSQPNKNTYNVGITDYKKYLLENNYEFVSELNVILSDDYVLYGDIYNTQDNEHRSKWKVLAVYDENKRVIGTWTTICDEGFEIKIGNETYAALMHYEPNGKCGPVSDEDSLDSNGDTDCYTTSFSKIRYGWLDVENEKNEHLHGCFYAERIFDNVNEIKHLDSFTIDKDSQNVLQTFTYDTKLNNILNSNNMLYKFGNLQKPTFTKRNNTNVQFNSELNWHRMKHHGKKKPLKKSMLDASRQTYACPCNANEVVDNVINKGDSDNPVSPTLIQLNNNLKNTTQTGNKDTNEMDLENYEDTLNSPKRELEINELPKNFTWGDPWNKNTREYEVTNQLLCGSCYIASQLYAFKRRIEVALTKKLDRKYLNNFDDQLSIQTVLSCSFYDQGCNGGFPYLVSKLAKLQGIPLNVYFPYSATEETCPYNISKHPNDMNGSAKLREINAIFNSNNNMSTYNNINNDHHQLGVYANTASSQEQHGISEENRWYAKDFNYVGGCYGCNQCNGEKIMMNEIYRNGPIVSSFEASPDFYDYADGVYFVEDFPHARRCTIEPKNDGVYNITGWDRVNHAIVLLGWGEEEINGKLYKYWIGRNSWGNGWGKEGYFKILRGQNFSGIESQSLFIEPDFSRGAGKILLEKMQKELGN
row,SMILES,% Inhibition @ 10 uM
1,CC1=CC2=NC(=O)/C(=C\c3cc(C)n(-c4cccc(C)c4C)c3C)C(=N)N2O1,-3.23%
2,CCN(CC)S(=O)(=O)c1ccc(NC(=O)COc2ccc3ccccc3c2)cc1,4.3%
3,COc1ccc(OC)c(S(=O)(=O)NC(C)c2ccccc2)c1 (stereo not shown),-6.87%
4,Cc1ccc(S(=O)(=O)N2CCC(C(=O)NCc3ccc4c(c3)OCO4)CC2)cc1,0.387%
5,CC(C)(C)c1ccc(-c2nc(NCCCN3CCOCC3)c3ccccc3n2)cc1,6.76%
6,CCCCNC(=O)CN(c1ccc(F)cc1)S(C)(=O)=O,3.01%
7,O=C(NCCN1CCOCC1)c1cc2nc3c(c(C(F)(F)F)n2n1)CCc1ccccc1-3,3.04%
8,N#CC(NC(=O)[C@H](CC1CCCCC1)NC(=O)OCc1ccccc1)c1ccccc1 (stereo partly shown),1.71%
9,COc1cc2c(cc1OC)C(SC)=NC1(CCCC1)C2,-0.357%
10,O=C(NC1CC1)c1ccc(C(=O)NC2CC2)cc1,0.605%
11,O=C(CSc1nc2ccsc2c(=O)n1CCCN1CCCCC1)NCCCc1ccccc1,0.359%
12,CC(NC(=O)Cn1cc(C(=O)c2ccccc2)c2ccccc21)c1ccccc1 (stereo not shown),-3.76%
13,CN1CSC2=C(C#N)C(c3cccc(OCc4ccccc4)c3)CC(=O)N2C1 (stereo not shown),71.1%
14,CCC(C)NC(=O)CCn1ccc2cc(S(=O)(=O)N3CCCC3)ccc21 (stereo not shown),-2.68%
15,CCC(=O)c1ccc(N2CCN(C(=O)c3cc(F)c(F)cc3C)CC2)c(F)c1,-1.63%
16,Cc1ccc(C2CC(C(F)(F)F)n3nc(C(=O)NCc4cnn(C)c4C)cc3N2)cc1 (stereo not shown),3.8%
17,Cc1ccccc1-n1c(/C=C/c2cccnc2)nc2ccccc2c1=O,13.8%
18,NC(=O)c1ccc(NC(=O)CCCOc2ccc(Cl)cc2Cl)cc1,0.907%
19,CCC(C)C(NC(=O)c1ccc(-c2csc(Nc3cccnc3)n2)cc1)C(=O)NCC#N (stereo not shown),-11%
20,CC(C)CCNS(=O)(=O)c1csc(C(N)=O)c1,-5.57%
21,COCCNC(=O)CN(c1ccc(F)cc1)S(=O)(=O)c1ccccc1,-5.46%
22,COc1ccc(-c2csc(Nc3ccc(C)cn3)n2)cc1OC,3.38%
23,CNC(=O)Cc1nnc(-c2ccc(C)cc2)o1,2.97%
24,O=C(N[C@@H](Cc1ccc2ccccc2c1)C(=O)N[C@@H](Cc1ccccc1)C(=O)C[N+](=O)[O-])OCc1ccccc1,-5.85%
25,Cn1c(SCc2ccc(F)cc2)nc2ccc(C(=O)N3CCC(C(N)=O)CC3)cc21,-8.99%

row,SMILES,% Inhibition @ 10 uM
1,CCCc1cc(=O)n2nc(N3CCC(C(=O)NCc4ccc(C)o4)CC3)sc2n1,-3.79%
2,CN(C)CCOc1ccc2c(c1)Sc1ccccc1CC2=O,-2.18%
3,Cc1cc(C)c2nc(N3CCCC(C(=O)N4CCCCCC4)C3)sc2c1 (stereo not shown),1.8%
4,CCSc1nc2ccccc2n1CCO,-3.14%
5,CCC(CO)Nc1ncnc2onc(-c3ccc(F)cc3)c12 (stereo not shown),1.06%
6,Cc1ccc(S(=O)(=O)c2ccc(Sc3ccc(C)c(C)c3)cc2)cc1,3.25%
7,Cc1ccc(-n2cc(-c3ccccc3)c3c(N4CCOCC4)ncnc32)cc1Cl,2.56%
8,Cc1ccc(C(C)C)c(OCC(=O)NCc2ccccc2)c1,0.00784%
9,Cc1ccc2sc(N(CCN(C)C)C(=O)CCS(=O)(=O)c3ccccc3)nc2c1C,-2.5%
10,CC1=Nc2ncnn2C(c2cccs2)/C1=C(/O)OCc1ccccc1 (stereo not shown),-0.465%
11,COc1ccc2c(c1)C1=C(CC2)C(c2ccccc2)NC(S)=N1 (stereo not shown),0.345%
12,Cc1ccc(S(=O)(=O)Nc2ccc(-c3cn4ccsc4n3)cc2)cc1C,-2.16%
13,CCCCOc1ccc(C(=O)NCCc2ccccc2)cc1,3.37%
14,O=C(N(CCN(C(=O)C(F)(F)F)c1ccccc1)c1ccccc1)C(F)(F)F,-2.74%
15,CN(C)CCCNC(=O)/C(=C/c1ccc(F)cc1)NC(=O)c1ccccc1,2.41%
16,N#CCNC(=O)[C@H](Cn1cncn1)NC(=O)OCc1ccccc1,-1.82%
17,COc1ccc(S(=O)(=O)NC(C)c2ccccc2)cc1OC (stereo not shown),5.1%
18,CCN(CC)C(=O)C1CCCN(Cc2sccc2C)C1 (stereo not shown),-2.7%
19,Cc1cc(-n2nc(C)cc2C)nc(-n2nc(C)cc2C)n1,-3.77%
20,O=C(Cc1ccc(F)cc1F)Nc1ccc(F)cc1F,-0.833%
21,COc1ccc(OC)c(/C=C2\N=C(c3ccccc3Cl)OC2=O)c1,-7.01%
22,O=C(CSc1nc2c(c(C(F)(F)F)n1)CCc1ccccc1-2)NCCCN1CCOCC1,3.35%
23,CCCn1c(CNc2ccccc2O)nc2ccccc21,4.61%
24,O=c1c2ccccc2ncn1-c1cc(C(F)(F)F)cc(C(F)(F)F)c1,-1.96%
25,O=C1NC(c2ccccc2)C(C(=O)c2ccc(Br)cc2)C(O)(C(F)(F)F)N1 (stereo not shown),4.59%

row,SMILES,% Inhibition @ 10 uM
1,CC1CCN(S(=O)(=O)c2ccc3c(ccn3CC(=O)NCCc3ccccc3Cl)c2)CC1,-0.177%
2,O=C1OC(/C=C/c2ccc(Cl)cc2)=NC/1=C/c1cccs1,-0.423%
3,N#CC1=C(N)OC2=C(C(=O)CCC2)C1c1ccc(Oc2ccc([N+](=O)[O-])cc2Cl)cc1 (stereo not shown),-2.63%
4,Cn1nc(-c2ccccc2F)c2cc(C(=O)N3CCC4(CC3)OCCO4)sc21,-5.1%
5,CC1=C(C(=O)Nc2ccccc2C)C(c2ccc(Cl)cc2)NC(=O)N1 (stereo not shown),-2.2%
6,COc1ccc(CCNC(=O)CSc2nnc(CNC(=O)c3ccccc3F)o2)cc1OC,-1.58%
7,COc1ccccc1Cn1c(SCC(N)=O)nc2c(oc3ccccc32)c1=O,-6.07%
8,Cc1nc2c(c(C)nn2-c2ccccc2)c(C)c1CCC(=O)N1CCC(N2CCCCC2)CC1,-0.465%
9,Cc1cccnc1CN1CCN(Cc2ncccc2C)CC1,3.57%
10,O=C(Nc1nsc(-c2ccccc2)n1)c1ccccc1,-5.3%
11,CCc1ccc2ncc(S(=O)(=O)c3ccc(OC)cc3)c(N3CCN(CC)CC3)c2c1,-5.54%
12,CCOC(=O)c1cc(S(=O)(=O)NCc2ccccc2Cl)cn1C,-2.84%
13,O=C(Nc1ccc(S(=O)(=O)Nc2ccc(F)cc2)cc1)C(F)(F)F,0.746%
14,Cc1c(C(=O)NC2CCCCC2)sc2nc(-c3ccc(F)cc3)cn12,-5.82%
15,COC(=O)C1=C(C)NC(=O)CC1c1c(Cl)cccc1Cl (stereo not shown),3.05%
16,Oc1ccc2ccccc2c1CN1CCN(c2ccccc2F)CC1,0.273%
17,CC(=O)c1ccc(OCC(O)CN2CCc3ccccc3C2)cc1 (stereo not shown),0.343%
18,CSc1ccc(CCNC(=O)c2ccc(CS(=O)c3ccccc3Cl)o2)cc1 (stereo not shown),-4.82%
19,Cc1nc(NCC2CCCO2)c2c(C)c(C)sc2n1 (stereo not shown),-0.519%
20,Fc1ccc(CN2CCN(c3ccccn3)CC2)cc1,1.38%
21,C#CCSc1nc2ccccc2c(=O)n1CC=C,-0.28%
22,O=C(c1ccc(Cl)cc1Cl)N1CCN(c2cccc(Cl)c2)CC1,1.54%
23,c1ccc(-c2csc(Nc3cccnc3)n2)cc1,-1.69%
24,CC1CCN(S(=O)(=O)c2cccc3c2C(=O)c2ccccc2C3=O)CC1,1.72%
25,Cc1cc(C)c(C)c(C=C2C(=O)c3ccccc3C2=O)c1C,-7.99%

row,SMILES,% Inhibition @ 10 uM
1,CCCn1c(NCc2ccc(OC)cc2OC)nc2ccccc21,-2.91%
2,O=[N+]([O-])c1ccc(CN2CCC(Cc3ccccc3)CC2)s1,1.4%
3,COc1cc(C(=O)NCc2cn3cccc(C)c3n2)cc(OC)c1OC,3.3%
4,CC1=C(C(=O)N(C)Cc2ccccc2)C2(CCC(C)CC2)OC1=O (stereo not shown),-5.58%
5,CCOc1ccccc1C(=O)Nc1cc(Cl)ccc1OC,1.47%
6,Cc1ccc(OCCSc2nc(C)cc(O)n2)cc1,1.62%
7,O=C(Nc1cccc2c(NC(=O)c3cccs3)cccc12)c1cccs1,0.907%
8,c1ccc(CSc2n[nH]c(-c3ccccc3)n2)cc1,4.85%
9,O=C1C2CCCCC2C(=O)N1Cc1ccccc1 (stereo not shown),-1.96%
10,CC(Oc1ccccc1)C(=O)NCCc1ccc(Cl)cc1 (stereo not shown),-8.42%
11,COc1ccccc1CNCc1c(C(=O)O)n(Cc2ccc(F)cc2Cl)c2ccccc12,0.277%
12,Cc1cccc(C)c1OCCCCCc1c(C)n[nH]c1C,3.47%
13,O=C(Nc1ccc2ccccc2c1)Nc1ccccc1SC(F)(F)F,1.8%
14,CN(CCNC(=O)C1c2ccccc2C(=O)N(C)C1c1cccs1)C1CCCCC1 (stereo not shown),-5.11%
15,Cc1ccc2c(c1)cc1c(=O)n(CC(=O)NCCC(C)C)nc(C)n12,-5.55%
16,Cc1ccc(S(=O)(=O)N(CC(=O)O)Cc2ccccc2F)cc1,2.57%
17,Cc1ccc(-n2nc3c(c2NC(=O)CCc2ccccc2)CS(=O)(=O)C3)cc1,7.78%
18,COc1cccc(/C=C2\NC(=O)N(Cc3ccccc3F)C2=O)c1O,-0.0626%
19,N#Cc1c(C(F)(F)F)cc(-c2ccccc2)nc1SCC(=O)Nc1nccs1,-11.4%
20,O=C1c2ccccc2C(=O)N1CCCc1nc(-c2cccs2)no1,0.9%
21,CC(CNC(=O)Cn1ncc2ccsc2c1=O)c1ccccc1 (stereo not shown),-8.42%
22,c1ccc(COc2ccc3c(c2)c2c4n3CCNC4CCC2)cc1 (stereo not shown),-1.96%
23,Cc1nnc(N2CCCC(C(=O)NCCCc3ccccc3)C2)c2nn(-c3ccccc3)c(C)c12 (stereo not shown),2.08%
24,CCC(=O)N(Cc1ccccc1)c1nc(C)cc(COC)c1C#N,4.58%
25,Cc1ccc(C)c(-c2ccc(=O)n(Cc3cc(=O)n4ccccc4n3)n2)c1,5.54%

# — publication PMC6919601, “Identification of Plasmodium dipeptidyl aminopeptidase allosteric inhibitors by high throughput screening” (PLoS ONE, 2019)
